Reference: patent US5858678, “Apoptosis-regulating proteins” (St. Louis University, dated 1999)

Assays:
[1] = target: human Bax (two-hybrid partner) (human, UniProt Q07812); test: yeast two-hybrid
yeast SNF1 protein bait = yeast SNF1 protein bait (yeast, UniProt P06782); test: yeast two-hybrid in strain Y153, X-gal (W = White)
Method: To determine the specificity of the two hybrid interaction, the three clones, 22, 44 and 91, were tested against baits expressing several heterologous proteins (Table 1). Among the various heterologous protein baits used, the adenovirus E3 11.6 kD protein is of particular interest as that protein localizes on the nuclear envelope region and has an internal hydrophobic domain like the E1B 19 kD protein (Scaria et al., 1992).
B = Blue W = White [@]Interactions with all baits except the yeast SNF1 protein were carried out in yeast Strain GGY1::171. Interaction with SNF1 was carried out in yeast strain Y153. *Colonies which appeared on -his, -trp, -leu plates after 6–8 days. Results of X-gal staining are indicated as B, blue; W, white; or ND, not done. The heterologous baits pLAM5 (human lamin) and pAS-SNF1 (yeast SNF1) have been described (Bartel et al., 1993, Durfee et al., 1993). Baits pHIV-1 Rev, pHIV-1 Tat, pHIV-1 Nef and pHTLV-1 Rex expressing the various HIV or HTLV regulating proteins were constructed as described herein and obtained from Cleta D'Sa Eipper and T. Subramanian, St. Louis University Medical Center, St. Louis, MO.

[2] = target: GAL4 DNA binding domain alone (vectors pMA424 or pAS1) (yeast, UniProt P04386); test: yeast two-hybrid with the empty GAL4 DNA binding domain vectors

Measured: binding result

B1: Nip3 (19K-interacting protein 3), protein coded by cDNA clone 91, tagged with the GAL4 activation domain (other)
chain: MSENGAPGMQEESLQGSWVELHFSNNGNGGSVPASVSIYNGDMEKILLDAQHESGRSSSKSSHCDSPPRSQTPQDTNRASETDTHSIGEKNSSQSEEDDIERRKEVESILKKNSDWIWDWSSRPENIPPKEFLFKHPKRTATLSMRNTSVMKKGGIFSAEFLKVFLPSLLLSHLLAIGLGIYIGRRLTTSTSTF
no binding: all assays above
